Source: publication PMC4336329 (PLoS ONE, 2015)
Hit rate of the full screen: of about 310,000 compounds, about 14,000 (4.5%) showed an effect of 50% or more. Effects have a minus sign here. The list shows a part of the results.

What follows are compounds tested against human ether-à-go-go-related gene (hERG) potassium channel (human, UniProt Q12809) (assay: primary screen, population patch clamp on CHO cells stably expressing hERG).
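Further: peak tail current of the secondary pulse compared with the same well before compound.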

Sequence of human ether-à-go-go-related gene (hERG) potassium channel (Q12809 whole entry, looked up): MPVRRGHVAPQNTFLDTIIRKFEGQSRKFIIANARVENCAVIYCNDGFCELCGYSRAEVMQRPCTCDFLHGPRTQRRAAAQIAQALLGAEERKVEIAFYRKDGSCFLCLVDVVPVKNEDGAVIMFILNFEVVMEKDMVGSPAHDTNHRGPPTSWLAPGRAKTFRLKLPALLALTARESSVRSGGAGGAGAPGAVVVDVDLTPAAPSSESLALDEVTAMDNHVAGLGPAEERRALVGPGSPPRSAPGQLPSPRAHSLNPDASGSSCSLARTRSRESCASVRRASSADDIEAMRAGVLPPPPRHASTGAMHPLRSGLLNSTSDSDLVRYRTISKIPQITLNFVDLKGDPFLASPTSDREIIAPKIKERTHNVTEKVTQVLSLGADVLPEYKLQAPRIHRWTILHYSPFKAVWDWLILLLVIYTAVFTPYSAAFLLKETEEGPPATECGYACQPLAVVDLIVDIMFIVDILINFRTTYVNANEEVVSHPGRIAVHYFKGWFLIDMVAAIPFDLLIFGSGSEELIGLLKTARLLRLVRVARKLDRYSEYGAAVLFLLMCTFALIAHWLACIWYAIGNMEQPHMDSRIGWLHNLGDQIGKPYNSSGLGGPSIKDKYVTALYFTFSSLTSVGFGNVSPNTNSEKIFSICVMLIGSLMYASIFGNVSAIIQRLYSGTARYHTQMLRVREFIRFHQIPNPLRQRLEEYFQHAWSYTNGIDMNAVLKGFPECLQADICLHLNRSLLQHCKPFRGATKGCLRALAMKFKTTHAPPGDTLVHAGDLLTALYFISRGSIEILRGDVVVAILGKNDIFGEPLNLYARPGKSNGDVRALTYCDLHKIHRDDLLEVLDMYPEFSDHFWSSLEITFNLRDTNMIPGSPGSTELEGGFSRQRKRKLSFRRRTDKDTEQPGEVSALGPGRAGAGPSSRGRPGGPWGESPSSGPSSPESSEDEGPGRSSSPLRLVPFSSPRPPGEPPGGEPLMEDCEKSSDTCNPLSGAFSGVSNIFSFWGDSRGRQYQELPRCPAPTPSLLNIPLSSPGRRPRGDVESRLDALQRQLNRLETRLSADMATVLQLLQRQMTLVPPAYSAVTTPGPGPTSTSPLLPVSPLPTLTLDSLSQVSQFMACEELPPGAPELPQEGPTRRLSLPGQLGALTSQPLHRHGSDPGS

| SMILES | hERG current change (%, negative = inhibition) at 10uM |
| --- | --- |
| O=C(CN1CCN(C(=O)c2ccco2)CC1)Nc1ccc(Br)cc1 | 5.38% |
| COc1ccc(CCNC(=O)CCC(=O)N2CCN(S(=O)(=O)c3ccccc3)CC2)cc1OC | 4.4% |
| Cc1ccc2sc3ccc(NC(=O)c4ccccc4Cl)cc3c(=O)c2c1 | 8.98% |
| O=C(CSC1CC(=O)N(CCc2ccccc2)C1=O)Nc1cccc(Cl)c1 (stereo not drawn) | 11.8% |
| Cn1c(=O)c2c(nc(Br)n2C/C=N/NC(N)=S)n(C)c1=O | 7.76% |
| NC(=O)c1ccccc1NC(=O)CN1CCOCC1 | 7.22% |
| Cc1cc(N2CCCCC2)nc(SCC(=O)c2ccccc2)n1 | 7.79% |
| CC(C)CN(C(=O)c1ccc(N2CCCC2=O)cc1)C1CCS(=O)(=O)C1 (stereo not drawn) | 6.18% |
| CC1CCN(C(NC(=O)c2ccco2)C(=O)c2ccccc2)CC1 (stereo not drawn) | -23.8% |
| CCCCNc1c(-c2ccc(OC)c(SC3CCCCC3)c2)nc2cnccn12.O=C(O)C(F)(F)F | -14.4% |
| C=CCOC(=O)C1=C[C@H](c2csc3ccccc23)C[C@H](OCc2ccc(CO)cc2)O1 | -3.64% |
| NC(=O)c1ccc(NC(=O)CN2CCN(c3ccccc3)CC2)cc1 | 12.6% |
| COCc1c(C(N)=O)nnn1-c1nonc1N | 8.94% |
| C/C(=N\O)C(=O)NCC1CCNCC1 | 7.94% |
| O=Cc1c(N2CCOCC2)nc2ccccn2c1=O | 9.17% |
| COC(=O)c1ccc(NC(=O)CN2CCN(c3ccc(Cl)cc3)CC2)cc1 | 11.9% |
| CCc1ccc(OCCSc2nc3ccccc3n2CCC(=O)O)cc1 | 22% |
| CCCCCSc1nncc(=O)[nH]1 | -6.35% |
| N#Cc1ccccc1NC(=O)c1cccc(COc2ccc(Cl)cc2Cl)c1 | 9.3% |
| O=C1CC2CS(=O)(=O)CC2N1c1ccc(Oc2ccccc2)cc1 (stereo not drawn) | -5.51% |
| COc1ccc(C(C)NC(=O)C2CCCO2)cc1OC (stereo not drawn) | 4.73% |
| Cc1ccc2oc(=O)c3cc(C(=O)NCCCN4CCc5ccccc5C4)sc3c2c1 | -6.63% |
| O=C1CCNc2ccc(-c3ccccc3)cc21 | 2.93% |

| SMILES | hERG current change (%, negative = inhibition) at 10uM |
| --- | --- |
| CCCCN(CC)CCNC(=O)CNC(=O)Cn1ccc2ccccc2c1=O | 4.99% |
| CN(Cc1ccccc1)c1c([N+](=O)[O-])c(=O)n(C)c2ccccc12 | -31.6% |
| Fc1ccc(C2=Nc3cccc4cccc(c34)N2)cc1 | 20.9% |
| Cc1ccnc2nc(C(=O)OCC(=O)NCc3cccc(Cl)c3)nn12 | -4.11% |
| COc1ccc(Cc2nnc(NC(=O)c3ccccc3Cl)s2)cc1OC | 16.1% |
| N#Cc1nc(-c2ccc(F)cc2)oc1NCc1ccccc1 | 5.96% |
| O=C(CCc1ccccc1)NNC(=O)c1cccc(F)c1 | 9.46% |
| O=C(NCCOc1ccccc1F)Nc1ccc(Br)cc1 | 8.52% |
| O=C(NCCCO)C(=O)NCCc1ccc(Cl)cc1 | -3.89% |
| CN1/C(=C\C(=O)C(F)F)C(C)(C)c2ccccc21 | -10.2% |
| Clc1cccc(N=NN2CCOCC2)c1Cl | 8.51% |
| Cc1c(C(=O)N/N=C/c2ccccc2)[nH]c2c([N+](=O)[O-])cccc12 | 8.67% |
| COc1ccc(-n2ncc3c2CC(C)(C)CC3NC(=O)CCC2=NNC(=O)CC2)cc1 (stereo not drawn) | 15.8% |
| COc1ccc(CCNc2nc(C)cc(=O)[nH]2)cc1OC | -2.16% |
| CC(C)C(=O)Nc1ccc(NC(=O)c2ccccc2Cl)nc1 | 4.02% |
| CC(=O)Nc1nc(-c2ccccc2)c(-c2ccccc2)o1 | -17.3% |
| CCOc1ccc(OCCCCNC(C)(C)C)cc1.O=C(O)C(=O)O | 8.98% |
| Cc1ccccc1C(=O)NC1CCN(CC(=O)Nc2ccc3c(c2)OCCO3)CC1 | 2.93% |
| Cc1ccc(-n2nc(C)c(=O)c(-c3ccccc3)c2NC(=O)C(C)C)cc1 | 10.5% |
| COc1ccc(CN(Cc2cccnc2)S(=O)(=O)c2ccc(-n3cnnn3)c(C)c2)cc1OC | -41.9% |
| COC(=O)/C=C1/SC(=NC(=O)c2ccc(F)cc2)NC1=O | -6.46% |
| CC(OC(=O)CCC(=O)c1ccccc1)C(=O)Nc1ccc(F)cc1 (stereo not drawn) | -284% |
| CCOC(=O)C1C(CC)NC(=S)NC1(C)O (stereo not drawn) | 23.8% |

| SMILES | hERG current change (%, negative = inhibition) at 10uM |
| --- | --- |
| COc1cc2[nH]c(=S)nc(Nc3ccc(NC(C)=O)cc3)c2cc1OC | 12.3% |
| CC(=O)Nc1cccc(-c2cn3ccccc3n2)c1 | -0.548% |
| Cc1cc(C)c2c(N)c(C(=O)c3ccc(Cl)cc3)sc2n1 | 6.19% |
| Cc1ccc(-n2nnnc2SCC(=O)c2cc(C)n(-c3cc(C)on3)c2C)cc1 | 4.41% |
| COC(=O)c1ccc(OC(=O)c2ccccc2F)cc1 | 32.3% |
| COc1ccc(CC(=O)Nc2ccccc2N2CCCCC2)cc1OC | -15.5% |
| CCOC(=O)C1CCCN(c2ncnc3c2cnn3-c2ccc(Cl)cc2)C1 (stereo not drawn) | -12.7% |
| Cn1nccc1NC(=O)CC(CC(=O)O)c1ccccc1 (stereo not drawn) | 10% |
| CC(=O)Nc1ccc(NC(=O)C2CCCN2S(=O)(=O)c2cccc3nsnc23)cc1 (stereo not drawn) | 18.9% |
| COc1cccc(NC(=O)CN(C)C(=O)CNC(=O)c2sc3ccccc3c2Cl)c1 | -15.8% |
| Cc1ccc2cc(C#N)c(NCCNC(=O)C3CCC3)nc2c1C | 1.15% |
| Cc1ccc2nc(Cl)c(CNCc3ccccc3)cc2c1 | -3.51% |
| CC[C@]12CCCN3CCc4c(n(c5ccccc45)[C@@](O)(C(=O)OC)C1)[C@@H]32 | -80.9% |
| CC1CCC(C(C)C)C(OCC(O)C[N+]2(C)CCCCC2)C1.[I-] (stereo not drawn) | 19.2% |
| CC/C(=N\NC(=O)c1csc(C)c1C)c1cccs1 | 6.65% |
| COc1ccc(S(=O)(=O)N(C)CC(=O)NC2CC2)cc1 | 2.71% |
| COc1cc2c(cc1OC)/C(=C/C(=O)N1CCOCC1)NC(C)(C)C2.Cl | 13.5% |
| CCC(C(=O)OC)n1cnc2c(nnn2-c2ccccc2)c1=O (stereo not drawn) | -7.76% |
| COc1cccc(CNC(=O)CCc2ccc(OC)c(OC)c2)c1 | 10.4% |
| CCOc1ccc2nc(NC(=O)C3CCN(S(=O)(=O)c4cnc[nH]4)CC3)sc2c1 | -8.96% |
| COC(=O)CN(c1ccc(OCc2ccccc2)cc1)S(C)(=O)=O | 6.08% |
| Cc1ccc(CN2C(=NC(=O)CCC(=O)O)SC3CS(=O)(=O)CC32)cc1 (stereo not drawn) | 0.971% |
| COc1ccc(S(=O)(=O)N2CCOCC2)cc1C(=O)NC1CCCCCC1 | -4.36% |

| SMILES | hERG current change (%, negative = inhibition) at 10uM |
| --- | --- |
| COc1cccc(OC)c1C(=O)NCCc1ccccc1 | 15.1% |
| CC1SC(c2ccc(Cl)cc2)NC1=O (stereo not drawn) | 13.2% |
| O=C1Nc2ccccc2C(=O)N2[C@H](c3ccccc3)[C@@H]3C(=O)N(Cc4ccccc4)C(=O)[C@@H]3[C@H]12 | -41.1% |
| CCCCCCC1CC(/C(C)=N\NC(N)=O)OC1=O (stereo not drawn) | -53% |
| COc1ccc(C(c2nnnn2Cc2ccc(F)cc2)N2CCN(c3ccc(OC)cc3)CC2)cc1 (stereo not drawn) | -7.57% |
| Cc1cc(NC(=O)CSc2nnc(C3CC3)n2N)c([N+](=O)[O-])cc1C | 24.3% |
| CCC(C)(C)C(=O)Nc1cc([N+](=O)[O-])ccc1F | 0.0472% |
| Cc1cccc(-n2c(-c3cccs3)nc3ccccc3c2=O)c1 | -5.98% |
| COc1ccc(Cl)cc1NC(=O)CN(c1ccccc1)S(=O)(=O)N(C)C | -10.1% |
| O=C(CSc1nnc2ccc(-c3ccc(F)cc3)nn12)NCC1CCCO1 (stereo not drawn) | -42.8% |
| Cc1nnc(SCC(=O)N2CC(=O)Nc3ccccc32)s1 | 10.4% |
| COc1cc(C(C(=O)NC2CCCCC2)N(Cc2cccs2)C(=O)Cc2c[nH]c3ccccc23)cc(OC)c1OC (stereo not drawn) | 7.94% |
| O=S1OC(c2ccccc2)c2cc(Cl)ccc21 (stereo not drawn) | 11% |
| CNS(=O)(=O)c1cccc(C(=O)OCC(=O)Nc2ccc(Cl)cn2)c1 | -23.3% |
| CCCC(=O)N1CCN(c2ccc(NC(=O)c3sc4ccccc4c3Cl)cc2)CC1 | 11.7% |
| CN(CC(=O)Nc1ccc(Cl)c(C(F)(F)F)c1)C(=O)c1cc(-c2ccncc2)nc2ccccc12 | 12.8% |
| O=C(CN(Cc1ccccc1F)C(=O)Cn1nnc(-c2cccs2)n1)NCC1CCCO1 (stereo not drawn) | -20.5% |
| O=C(CN(c1ccccc1F)S(=O)(=O)c1ccccc1)N1CCCCCC1 | -6.07% |
| Cn1nnnc1SCC(=O)Nc1ccccn1 | 19.2% |
| COc1ccc(C)cc1NC(=O)CN(C)S(=O)(=O)c1ccc2c(c1)n(C)c(=O)c(=O)n2C | 3.01% |
| O=C(CN1C(=O)C2C3C=CC(C3)C2C1=O)Nc1cccc2c1CCCC2 (stereo not drawn) | -16% |
